The record followed here is PMC4336329 (PLoS ONE, 2015).

The structures appear in SMILES notation. In all, about 310,000 compounds went through this assay and about 2,200 (0.71%) showed an effect of 50% or more. Effects have a minus sign here. The list shows a part of the results.

Chain of human ether-à-go-go-related gene (hERG) potassium channel (Q12809 whole entry, looked up): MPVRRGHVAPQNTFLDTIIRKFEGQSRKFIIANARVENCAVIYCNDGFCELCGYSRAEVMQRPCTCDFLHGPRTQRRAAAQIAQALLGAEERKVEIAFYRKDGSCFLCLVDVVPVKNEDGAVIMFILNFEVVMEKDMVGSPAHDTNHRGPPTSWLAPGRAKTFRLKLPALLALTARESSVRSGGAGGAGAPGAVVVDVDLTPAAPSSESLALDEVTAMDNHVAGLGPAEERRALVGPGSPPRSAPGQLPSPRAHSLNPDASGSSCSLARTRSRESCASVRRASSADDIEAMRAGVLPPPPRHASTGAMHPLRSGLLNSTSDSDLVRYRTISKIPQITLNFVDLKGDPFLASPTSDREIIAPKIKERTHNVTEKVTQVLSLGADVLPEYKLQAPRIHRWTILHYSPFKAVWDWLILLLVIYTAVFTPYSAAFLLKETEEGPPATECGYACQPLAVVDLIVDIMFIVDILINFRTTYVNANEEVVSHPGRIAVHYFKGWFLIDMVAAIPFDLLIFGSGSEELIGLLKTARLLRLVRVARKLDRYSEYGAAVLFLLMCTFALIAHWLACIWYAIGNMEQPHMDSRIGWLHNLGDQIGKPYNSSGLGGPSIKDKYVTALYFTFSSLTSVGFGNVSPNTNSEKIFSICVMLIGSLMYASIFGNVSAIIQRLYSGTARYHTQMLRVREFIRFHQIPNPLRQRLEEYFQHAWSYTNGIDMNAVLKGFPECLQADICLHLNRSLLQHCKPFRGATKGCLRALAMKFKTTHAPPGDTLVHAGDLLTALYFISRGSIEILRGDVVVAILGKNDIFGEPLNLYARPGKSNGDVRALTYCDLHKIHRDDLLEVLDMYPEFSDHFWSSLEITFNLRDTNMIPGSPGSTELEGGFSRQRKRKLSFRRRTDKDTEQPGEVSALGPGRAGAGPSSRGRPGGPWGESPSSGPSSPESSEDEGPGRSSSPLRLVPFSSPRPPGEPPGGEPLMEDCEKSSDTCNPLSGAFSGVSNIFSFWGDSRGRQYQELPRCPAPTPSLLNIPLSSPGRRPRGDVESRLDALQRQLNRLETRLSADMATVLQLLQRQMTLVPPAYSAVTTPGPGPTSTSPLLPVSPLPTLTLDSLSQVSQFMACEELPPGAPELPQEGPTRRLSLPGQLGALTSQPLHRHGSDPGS

The test has as its target human ether-à-go-go-related gene (hERG) potassium channel (human, UniProt Q12809). Nature of the test: primary screen, population patch clamp on CHO cells stably expressing hERG.
With `CC(NC(N)=O)C(=O)Nc1ccc(Cl)c(S(=O)(=O)Nc2ccc(Br)cc2)c1` (stereo not shown), the “hERG current change (%, negative = inhibition) at 1uM” value is listed as 16.1%.

For `O=C(NC(=S)Nc1ccc(S(=O)(=O)N2CCCCC2)cc1)c1cccs1`, the “hERG current change (%, negative = inhibition) at 1uM” value was 13.8%.

Take `Cc1ccccc1CNC(=O)C1CCCN(c2nnc(C)c3c(C)n(-c4ccccc4)nc23)C1` (stereo not shown): the “hERG current change (%, negative = inhibition) at 1uM” value was 11.7%.

On to `CCOC(=O)c1c(NC(=O)COc2ncnc3ccccc23)sc(C)c1C`, for which the “hERG current change (%, negative = inhibition) at 1uM” value came out at 6.47%.

Turning to `Cc1noc(C)c1C(=O)OCC(=O)NCCc1ccccc1`, the “hERG current change (%, negative = inhibition) at 1uM” value worked out at 14.8%.

Take `Cc1cc(C)nc(NC(=O)c2c(Cl)cccc2Cl)n1`: the “hERG current change (%, negative = inhibition) at 1uM” value was 5.34%.

Take `CN(C)/C=C/C(=C\C(=O)C(F)(F)F)Nc1ccc(C(F)(F)F)cc1`: the “hERG current change (%, negative = inhibition) at 1uM” value was 10.7%.

Take `O=C(Nc1ccc(Cl)cn1)c1ccc(-c2cc(Cl)ccc2Cl)o1`: the “hERG current change (%, negative = inhibition) at 1uM” value worked out at 4.99%.

As to `O=C(CN1CCOCCOCCOCC1)Nc1ccccc1`, the “hERG current change (%, negative = inhibition) at 1uM” value is given as 6.76%.

`Cc1cccc(N(C(=O)CCC(=O)Nc2cc(C)on2)C(C(=O)NC2CCCC2)c2ccc(C)o2)c1` (stereo not shown): the “hERG current change (%, negative = inhibition) at 1uM” value is listed as 16.4%.

With `CCOC(=O)Cc1nnc(Nc2cccc(C)c2)c2ccccc12`, the “hERG current change (%, negative = inhibition) at 1uM” value is recorded as -3.65%.

Consider `O=C(CN1CCOCC1)Nc1c2c(nc3c1CCC3)CCC2.O=C(O)C(=O)O`, for which the “hERG current change (%, negative = inhibition) at 1uM” value is reported as 9.72%.

`COc1ccc(S(=O)(=O)Nc2c(C(=O)O)[nH]c3ccccc23)c(OC)c1`: the “hERG current change (%, negative = inhibition) at 1uM” value was -1.45%.

On to `Cn1nnc(C(O)CN2CCOCC2)n1` (stereo not shown), for which the “hERG current change (%, negative = inhibition) at 1uM” value was -0.767%.

Regarding `O=C(Nc1ccccc1Br)C1CCC(=O)N1Cc1ccccc1Cl` (stereo not shown), the “hERG current change (%, negative = inhibition) at 1uM” value worked out at 8.66%.

On to `COc1ccc2c(c1OC)C(=O)N(c1ccc3c(c1)CCC3)C2=O`, for which the “hERG current change (%, negative = inhibition) at 1uM” value worked out at 8.52%.

`NC(=O)COC(=O)c1cccc(S(=O)(=O)N2CCN(c3ccc(F)cc3)CC2)c1`: the “hERG current change (%, negative = inhibition) at 1uM” value is 18.7%.

Turning to `COc1ccc(/C=N/n2c(-c3n[nH]c4c3CCC4)n[nH]c2=S)c(OC)c1OC`, the “hERG current change (%, negative = inhibition) at 1uM” value is reported as 23%.

For `O=C(O)CCNS(=O)(=O)c1ccc2ccccc2c1`, the “hERG current change (%, negative = inhibition) at 1uM” value is 14.1%.

In the case of `O=C1Nc2cc(S(=O)(=O)N3CCCC3)ccc2N2CCCC12` (stereo not shown), the “hERG current change (%, negative = inhibition) at 1uM” value is 13.2%.

`Cc1cc(Br)ccc1NC(=O)CNC(=O)CN1C(=O)NC2(CCCCCC2)C1=O`: the “hERG current change (%, negative = inhibition) at 1uM” value came out at 12.3%.

On to `CC(NC(=O)Cc1ccc([N+](=O)[O-])cc1)c1ccc2c(c1)OCO2` (stereo not shown), for which the “hERG current change (%, negative = inhibition) at 1uM” value worked out at 5.62%.

For the molecule `CCOC(=O)C1=C(C)OC(N)=C(C(=O)OCC)[C@@]12C(=O)N(CC(N)=O)c1ccccc12`, the “hERG current change (%, negative = inhibition) at 1uM” value was 5.57%.

Turning to `COc1cc2c(cc1OC)C(COc1ccc(F)cc1)N(C(C)=O)CC2` (stereo not shown), the “hERG current change (%, negative = inhibition) at 1uM” value is 14.3%.

In the case of `CCN(CC)C(=O)Cn1cc(/C=C2\C(=O)NC(=O)N(c3ccccc3F)C2=O)c2ccccc21`, the “hERG current change (%, negative = inhibition) at 1uM” value is on record as 13.6%.

As for `O=S(=O)(Nc1ccc2nc(C(F)(F)F)[nH]c2c1)c1ccccc1`, the “hERG current change (%, negative = inhibition) at 1uM” value is recorded as 12.1%.

For `O=C(/C=C/c1ccco1)Nc1ccc(Oc2ccc(Cl)cc2)cc1`, the “hERG current change (%, negative = inhibition) at 1uM” value stood at 12.8%.

On to `COc1ccc(CCNC(=O)C23CCC(C)(C(=O)O2)C3(C)C)cc1OC` (stereo not shown), for which the “hERG current change (%, negative = inhibition) at 1uM” value was 6.15%.

For `CN(CC(=O)Nc1cccc(F)c1)C(=O)c1cccc(N2C(=O)CCC2=O)c1`, the “hERG current change (%, negative = inhibition) at 1uM” value turned out to be 10.4%.

As for `CCC(=O)N1CCc2cc(S(=O)(=O)NCCC(=O)NCc3ccccc3OC)ccc21`, the “hERG current change (%, negative = inhibition) at 1uM” value came out at 10.7%.

For the molecule `CCOc1ccccc1CN1CCN(S(=O)(=O)CC)CC1.O=C(O)C(=O)O`, the “hERG current change (%, negative = inhibition) at 1uM” value was 17%.

Consider `CC12CCC(C(=O)Nc3cccc(Cl)c3Cl)([C@H](Br)C1=O)C2(C)C` (stereo partly shown), for which the “hERG current change (%, negative = inhibition) at 1uM” value is 8.9%.

Regarding `CCOc1ccc(N2C(=O)/C(=C/c3ccccc3OCC(=O)OC)N(CC(=O)OC)C2=S)cc1`, the “hERG current change (%, negative = inhibition) at 1uM” value turned out to be 9.51%.

For `O=C(O)/C=C/C(=O)NNC(=O)c1cccc(Br)c1`, the “hERG current change (%, negative = inhibition) at 1uM” value came to 6.81%.

On to `CC(=O)Nc1cccc(C(=O)N(CCc2ccccc2)Cc2ccccc2)c1`, for which the “hERG current change (%, negative = inhibition) at 1uM” value was found to be 10.2%.

As for `Cc1ccc(S(=O)(=O)N2CCC(C(=O)OCC(=O)NC(C)c3ccc(F)cc3)CC2)cc1C` (stereo not shown), the “hERG current change (%, negative = inhibition) at 1uM” value came to 2.85%.

Turning to `Nc1sc(-c2ccccc2)c(Cc2ccccc2)c1C(=O)O`, the “hERG current change (%, negative = inhibition) at 1uM” value amounted to 11.5%.

For `O=C(CSc1nc2cc(Cl)ccc2o1)NCCc1ccccc1`, the “hERG current change (%, negative = inhibition) at 1uM” value worked out at 6.91%.

Take `CC(C)(C)C1CCC(C(=O)OCC(=O)N2CCOCC2)CC1` (stereo not shown): the “hERG current change (%, negative = inhibition) at 1uM” value is reported as 7.13%.

For `Cc1noc(C)c1CCC(=O)N1CCCC(N2CCN(c3ccc(F)cc3)CC2)C1` (stereo not shown), the “hERG current change (%, negative = inhibition) at 1uM” value is listed as -14.9%.

Take `CCc1c(C(=O)NNC(=S)NCC2CCCO2)csc1C` (stereo not shown): the “hERG current change (%, negative = inhibition) at 1uM” value is 0.898%.

With `O=C(Nc1cccnc1)C12CC3CC(CC(C3)C1)C2`, the “hERG current change (%, negative = inhibition) at 1uM” value is 1.77%.

For the molecule `COc1cccc(N(CC(=O)NC2CCCC2)C(=O)CCCC(=O)Nc2ccccn2)c1`, the “hERG current change (%, negative = inhibition) at 1uM” value was 11.6%.
